Tested on: arteries and veins
Set-up: species or system dog
Conditions: as compared to ANP and CNP
Description: The results obtained are expressed as the means±SEM. In organ chamber studies, n equals the number of dogs from which rings were taken. […] In rat studies, the data were analyzed using ANOVA for repeated measures followed by Fisher's least significant difference test when appropriate within the group. Data between groups were analyzed by Student's unpaired t-test. Statistical significance was determined at p<0.05.

vasonatrin peptide [VNP]
vasorelaxing potency: more potent
